# Measured values as given in the supplement of paper PMC11417369.
# ± gives the standard deviation of the averaged measurements. The list shows a part of the results.
# Tested on: PfAP2-G AP2 domain (GST-tagged)
# Test: gcPBM binding intensity (ln(normalized median fluorescence intensity)); higher = stronger DNA binding
# Procedure, shortened: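 GST-tagged P. falciparum DNA-binding domains, expressed in E. coli (about 25 μg on average), were applied for 1 h to an Agilent 4 × 180k array of primer-extended double-stranded 36-bp intergenic genomic probes plus negative controls. The binding buffer was 1× PBS with 1% milk, 0.2 mg/ml BSA, 0.5% salmon testes DNA and 0.03% Triton X-100. Bound protein was detected with Alexa488 anti-GST antibody and scanned at 488 nm. Binding intensity is the highest Masliner-normalised natural-log median intensity across replicate spots of either probe orientation.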
row,Sequence,gcPBM binding intensity (ln)
1,ATGTTATTACATAATTGTACATTTTGAGCAATTAAG [XGTACX_site4640],10.7 ± 0.49
2,ATAAATCTACACCGCACACAAAAACAACAAATATTA [CACACA_site5396],10.2 ± 0.22
3,AATGAATATATATAAATATATATATATATATATATA [CACACA_negctrl_site1494],9.89 ± 0.65
4,TTTTTTTTTTTTTCTTCACACACAGTACTACTATTT [CACACA_site8759],11.2 ± 0.95
5,TTAGCTTTTTTTTAAACATGCAACTACTTGATCCAC [TGCATGCA_site1017],10.1 ± 0.3
6,TATGTGAATCCTAAGTGTACACATCTTACATATATA [XGTACX_site2506],11.6 ± 0.8
7,AGTATACGCAGACACACACACACATATATATATATA [CACACA_site1735],10.3 ± 0.37
8,TATTTATTATTATGTACACACTATATTAAAACATAA [CACACA_site4549],11.4 ± 0.86
9,AAATGTGTAAATATAATTAGTTTCACAAAACAAATA [GTGCAC_negctrl_site543],9.9 ± 0.25
10,GGTATATGCATAAAGAGTACGTAACTTCTTTTTGTT [XGTACX_site6344],11.2 ± 0.59
11,ATAAGATGATTAATTACACACTTTATAGGATATTTA [CACACA_site1711],9.68 ± 0.13
12,AAAAATAAATAAAGTGGTACATAAAAAAGAGAAATT [XGTACX_site874],11.5 ± 0.87
13,GTGCATATGTAGATATGTACATATTTATTTATTATT [XGTACX_site7343],11.1 ± 0.64
14,TATATAAGGATATATACACACATATAGGTATTTATA [CACACA_site7092],9.88 ± 0.028
15,TCAGGAATATAAAGTGCACACATAATTTGGGGGCAA [CACACA_site7974],11.1 ± 0.73
16,TTTTAAAAAAATAAAAAATAATAAAAAAAATAAAAA [CACACA_negctrl_site1693],9.46 ± 0.014
17,AATATGATTATTACCCGTACATATTACCTTATGGTA [XGTACX_site1714],10.9 ± 0.48
18,AATGATATTATCTCTTCACACACTCACATACAGACA [CACACA_site8335],10.1 ± 0.2
19,TCATTGAAAAAAATGTGTACTCATCAAGTATATATT [XGTACX_site6430],11.4 ± 0.88
20,GCGGCGGTATCATGCACACGTATATATTGTAACAGT [CACACA_site4958],10.3 ± 0.14
21,ATATATAATTTTTGTTGTACATTATAAAAATAATTA [XGTACX_site2738],11.2 ± 0.59
22,ATTGTTATGAGAACAGCACACAAGCTACATCATATA [CACACA_site8192],10.1 ± 0.15

row,Sequence,gcPBM binding intensity (ln)
1,TTTACAGATACATTCACACATAAATTCATGTATAAT [CACACA_site5387],9.94 ± 0.057
2,GGATTTATTATATATACACACATACATATATATATA [CACACA_site8669],10.3 ± 0.44
3,GTCTAAGCTTATAGGCGTACACATGAATATGGATGT [XGTACX_site2439],11.6 ± 0.84
4,ATACATAAAATTAAAACACACATTTGATTAAATACG [CACACA_site7088],10.07 ± 0.071
5,ATCAAGCGCAATGTGGTGCGTAAATTTTGTATTATA,10.2 ± 0.21
6,AAAGGATACAGACACACACACACATATATATATATA [CACACA_site906],10.2 ± 0.23
7,ATAAGAAAAAAGAACTGTACTAATAAAATATAAAAA [XGTACX_site3715],11.3 ± 0.75
8,ATTATATAATTGTCTTCACACACACCGATATATATA [CACACA_site8883],10.2 ± 0.16
9,TGTACATATATATAATATATATATCATCATATTTTC [CACACA_negctrl_site1750],10.4 ± 0.21
10,ATAATATATATACAAACACACAATTGTGTCCACATT [CACACA_site1747],11.4 ± 0.83
11,TCCTTAAAATATATCACACATTTCGTTCATTTATAA [CACACA_site4346],9.91 ± 0.18
12,TATATATATATATCCACACACATACAGATATTAAGA [CACACA_site4214],10.2 ± 0.25
13,AGTATACGAATAAAATGTACATACAAATTGTTGTAA [XGTACX_site36],11 ± 0.67
14,ATTCACGTGTCTTAAAAAAAAAAAAAAGAAAAAAAG [CACACA_negctrl_site573],10 ± 0.47
15,ATATATATATATATATGTACATATATATACATATAT [XGTACX_site6987],11.5 ± 1
16,TTATTTATAATATATACACACTAACATTATTTATCC [CACACA_site4835],9.815 ± 0.049
17,TATAATATATACAAATGTACATATATATATATATAT [XGTACX_site4559],11 ± 0.54
18,TATATATATATATATGGTACAGTTTATGCCTTTTAA [XGTACX_site6695],10.8 ± 0.56
19,ATTTTCATGATAAAGGTGCAATTATTTTTATAAGAA,10.1 ± 0.26
20,AAAAAAAAAAAAAAAAAAAAAAAAAAAATTCTATAT [GTGCAC_negctrl_site468],11 ± 0.47
21,AAGGCATACAATACCTGTACGCAACCTTAAAAAGAA [XGTACX_site6070],11.5 ± 0.91
22,ATATATATGTGAAAATCACACATTGCTTATCTGTAA [CACACA_site6044],9.685 ± 0.021

row,Sequence,gcPBM binding intensity (ln)
1,TGTTTTATTATTTATAGTACATAAAAAAATATTGTA [XGTACX_site8963],11.1 ± 0.82
2,TTCGTATATTATTAATGTACATTATAAAATCAATAT [XGTACX_site5751],10.9 ± 0.57
3,AAAAAAACATGAAACACACACAAATATATATATATA [CACACA_site1884],10.1 ± 0.56
4,AACAATATTATTGTTTGTACTCACATATATAATATA [XGTACX_site8063],11.5 ± 1.1
5,TTATTTTTTTTTTTTCGTACTTATTTATCTTGGTAT [XGTACX_site78],10.9 ± 0.51
6,AGATATTTCATTTAAAGTACATTCTTTATCACATAA [XGTACX_site6731],11 ± 0.69
7,CACACGCACAAAAACACACACAAAGGTGTTCTTATA [CACACA_site6724],10.2 ± 0.18
8,TATAATATAAAATAATGTACTTTGAAATATGACATA [XGTACX_site3579],10.9 ± 0.64
9,AGTTTGATTTTTTCTTATAATATATTATTATATATT [CACACA_negctrl_site376],9.975 ± 0.021
10,AATATAAAAAAAAAATGTACATATTATATATATATA [XGTACX_site5113],11.1 ± 0.72
11,AAAAATTTTTTTTCATTTGTTTTTATTCCGTAAAAA [CACACA_negctrl_site1217],10.05 ± 0.057
12,ACCGAAGGAATTTATAGTACACATCATAAATAAATT [XGTACX_site4100],11.3 ± 0.74
13,ATATATATATATATTTGTACAGATTTATATTATAAT [XGTACX_site7612],10.9 ± 0.54
14,GAAAATTTAATATAGAACGAAAGCATACACATATAT [GTGCAC_negctrl_site424],10.02 ± 0.049
15,CCATATAATATGAACAGTACACACAAAATAAATTCG [XGTACX_site7590],11.1 ± 0.72
16,AAATATTATAGCACCACACACTTATTTTATATATAT [CACACA_site5281],10.3 ± 0.13
17,TTTTTATTAATAGATATAAATATATAATATGAATGT [TGCATGCA_negctrl_site309],9.84 ± 0.11
18,ATATGTGATTTCTAATGTACACAAAAAAAAAAAAAA [XGTACX_site7701],11.3 ± 0.91
19,TTATGTCATAAATGCACACATATATAAATACAGATA [CACACA_site4959],10 ± 0.22
20,TCTTCAAACAAAAAAAATAATAAAAAGTACAAAATG [CACACA_negctrl_site363],11.4 ± 0.82
21,CTTTTATTAAAATTCACACACATAAATTTTTATAAA [CACACA_site1993],10 ± 0.29
22,ATATATACGTATGAATGTATATTTGTTTGATTTTTT [CACACA_negctrl_site835],9.88 ± 0.12

row,Sequence,gcPBM binding intensity (ln)
1,GGGGTATCTTCCTATGCACACTTGTTATGTACTAAC [CACACA_site4610],11.1 ± 0.57
2,TTTTTGTTTTTGTTTTGTACTCATACATACTATCAT [XGTACX_site4210],11.4 ± 0.88
3,GCTCAATTTTTGGGTACACACAAATGTATAATAATA [CACACA_site2388],11.6 ± 1
4,ATATATATTATTTCTACACACATATATATAATATGT [CACACA_site3374],9.97 ± 0.014
5,TTTTTTCTATTGAGCACACATATCACGATTAGTACT [CACACA_site313],10.6 ± 0.26
6,AAAAAAAAAAAAAAAACACACATATAGATTTATATA [CACACA_site7196],10.1 ± 0.2
7,CAAAGAGAAATAAACACACACAAAATAAAGAAAAAA [CACACA_site2245],9.915 ± 0.049
8,TTCTTTTTTCAACACACACACACAAGAAAATATATA [CACACA_site9019],10.4 ± 0.37
9,CAATGCTTTATCAATACATGCATATATATAGAAATA [TGCATGCA_site857],9.755 ± 0.035
10,GCACTCGTAAAAAGCACACATATAAAAACATTTATA [CACACA_site322],10.2 ± 0.26
11,TGAACAGACAAATACACACACTCAAAAAAAAAAAAG [CACACA_site7287],10.2 ± 0.33
12,CATACATACAGACACACACACATATAAATACATACA [CACACA_site6533],10.3 ± 0.35
13,TTCCTGTTAATTACAACACACAATTCTTATTTTATG [CACACA_site6507],10.2 ± 0.16
14,AAAATCTATAATATAACACACATATATTCTATATGG [CACACA_site7821],9.67 ± 0.14
15,ATTTTCAAATTCTATGCATGTGTATATTATAGATAA [TGCATGCA_site1003],9.825 ± 0.078
16,CTATAATAATAAAGTGAACACACACCGATAATATAT [CACACA_site9377],10.12 ± 0.064
17,TTAACAAAACTTTTAACACACAAAAAAAAAAAAAAA [CACACA_site6947],9.84 ± 0.5
18,ATGACCCACTTTTCTGCACACATAAAAAATATATAA [CACACA_site8092],10.8 ± 0.5
19,AACACATACATATATACACACACAAAATAATAAAAT [CACACA_site8724],10.1 ± 0.28
20,TTATGATATATTTGTTGTACGCTTTTTTTATGAACT [XGTACX_site573],11.8 ± 1.1
21,GTAAGTTGTGCATTCACACACATATAAATATAAATA [CACACA_site7536],10.2 ± 0.16
22,CATTATGTTGTAAATGCACACATACAAATACATATA [CACACA_site8380],10.2 ± 0.16
